Results from PubChem BioAssay AID2101 (National Center for Advancing Translational Sciences (NCATS), 2009).
About 300 (0.091%) of roughly 330,000 compounds were called active. Inconclusive results, whose numbers are uncertain, are shown with a selection of clear calls. Calls come from the whole dose curve; as a rule, active = well fitted inhibition curve with a large enough effect; inconclusive = small, poorly fitted or top-dose-only effect, or effect the other way, or another doubt; inactive = no such curve, though single readings can be large or run the other way. No potency is given beside an inconclusive call; the fits are too rough.

molecular target: Lysosomal acid glucosylceramidase (Homo sapiens) (UniProt P04062); assay: qHTS Assay for Inhibitors and Activators of N370S glucocerebrosidase as a Potential Chaperone Treatment of Gaucher Disease; details: N370S GC spleen homogenate, 4MU-glucoside fluorescence; activity change, negative = inhibition: at 59.4 µM (top of the series) unless noted;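 for activity change, negative = inhibition: 0% = full enzyme activity and -100% = no enzyme basal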
Potency is the fitted concentration of half-maximal effect.

Row | Compound | Potency | activity change, negative = inhibition
1 | CC(C)[C@H](NC(=O)c1ccccc1)C(=O)OCC(=O)NCCc1ccc(F)cc1 | inconclusive [activator, partial curve, poor fit] | 
2 | COc1ccc(C)cc1NCc1cccc(OC)c1OC |  | inactive: 26.5%
3 | CCOC(=O)[C@H]1[C@H]2COc3ccc(Br)cc3[C@@H]2N2C(=O)c3ccc(F)cc3NC(=O)[C@@]12C | inconclusive [activator, single point] | 
4 | Cn1ccnc1-c1nc2ccccc2[nH]c1=O | inconclusive [activator, partial curve] | 
5 | Cc1cccc(-n2c(O)c(C=Nc3ccc(O)cc3)c3ccccc3c2=O)n1 | inconclusive [inhibitor, single point] | 
6 | CC1CCN(c2ncnc3c2cnn3Cc2ccc(Cl)cc2)CC1 | inconclusive [activator, single point] | 
7 | CCS(=O)(=O)c1nc(S(=O)(=O)c2ccc(C)cc2)c(N2CCC(C)CC2)s1 | inconclusive [activator, single point] | 
8 | O=C(NC1CC1)c1ccc2c(c1)N(Cc1ccc(Cl)cc1)CCS2 | inconclusive [activator, single point] | 
9 | O=C(O)c1cc(-c2ccccc2)nc2nc(N3CCCCC3)sc12 | inconclusive [activator, single point] | 
10 | O=C(O)c1cc(C(=O)O)c(C(=O)N(Cc2cccc(Oc3ccccc3)c2)[C@H]2CCCc3ccccc32)cc1C(=O)O |  | inactive: -2.21%
11 | O=c1c2ccccc2oc2cc(NCCCn3ccnc3)ccc12 | inconclusive [activator, partial curve] | 
12 | Cc1ccc(S(=O)(=O)c2cc3c(=O)n4ccccc4nc3n(CCCN3CCOCC3)c2=N)cc1C | inconclusive [activator, single point] | 
13 | Cc1oc2c(CN3CCCC(C)C3)c(O)ccc2c(=O)c1-c1ccccc1 (stereo not given) | inconclusive [activator, single point] | 
14 | O=c1[nH]c(NCCO)nc2c1C1(CCCCC1)Cc1ccccc1-2 | inconclusive [activator, partial curve] | 
15 | Cc1ccc(C(=O)Nc2cc(Cl)ccc2Oc2ccccc2)cc1[N+](=O)[O-] |  | inactive: 11.8%
16 | CCCn1nc(NS(=O)(=O)c2ccccc2[N+](=O)[O-])c2cc3ccccc3nc21 |  | inactive: -0.832%
17 | COc1ccc(S(=O)(=O)Nc2cc(C)c(O)c(S(=O)(=O)c3ccccc3)c2)cc1 | inconclusive [activator, single point] | 
18 | C#Cc1ccc([C@@H]2C=C(C(=O)N3CCN(Cc4ccc5c(c4)OCO5)CC3)O[C@H](OCC)[C@H]2CCCO)cc1 | inconclusive [inhibitor, partial curve] | 
19 | Cc1ccc2oc(Nc3nc(-c4ccccc4)cc(=O)[nH]3)nc2c1 |  | inactive: 4.38%
20 | COC(=O)c1ccc(-c2ncc(-c3cccc4ccccc34)o2)cc1 | inconclusive [activator, partial curve] | 

Row | Compound | Potency | activity change, negative = inhibition
21 | CCOC(=O)C1CCCN(c2oc(-c3ccc(F)cc3)nc2C#N)C1 (stereo not given) | inconclusive [activator, partial curve] | 
22 | CCOC(=O)C1=C(c2ccccc2)Nc2ncnn2C1c1ccc(C(=O)O)cc1 (stereo not given) |  | inactive: -15.7%
23 | Cc1ccccc1NC(=O)C1Cc2ccccc2CN1C(=O)OCc1ccccc1 (stereo not given) | inconclusive [activator, partial curve] | 
24 | COc1cc(OC)c2c(-c3cccc(-c4ccc(CO)cc4)c3)cc(=O)oc2c1 | inconclusive [activator, partial curve] | 
25 | C#CCOCCOCCOCCNc1nc(N2CCN(C(=O)CCCCCCCCCCNC(=O)[C@H](CCCCN)n3cc(CCCC(=O)O)nn3)CC2)nc(N2CCN(C(=O)CCCCCCCCCCNC(=O)[C@H](CCCN=C(N)N)n3cc(C[C@@H](C)CC)nn3)CC2)n1 | inconclusive [inhibitor, partial curve] | 
26 | O=C(CC12CC3CC(CC(C3)C1)C2)NCC(c1ccc(F)cc1)N1CCOCC1 (stereo not given) | inconclusive [inhibitor, partial curve] | 
27 | COc1ncc2nc(-c3ccc(F)cc3)c(=O)n(Cc3cccs3)c2n1 |  | inactive: 2.97%
28 | CC(C)=CCOc1ccc2c(C)c(CC(=O)N3C[C@H]4C[C@@H](C3)c3cccc(=O)n3C4)c(=O)oc2c1C | inconclusive [activator, single point] | 
29 | CC(=O)Nc1ccc(SC[C@H](Cc2ccccc2)N2CCN(CC(C)C)CCC2=O)cc1 | inconclusive [inhibitor, partial curve] | 
30 | O=C(Cn1c2ccccc2c(=O)c2ccccc21)Nc1ccccc1F |  | inactive: 1.19%
31 | N#Cc1c(C(F)(F)F)cc(-c2cccs2)nc1SCc1cccnc1 |  | inactive: 0.913%
32 | Fc1ccc(N2CCN(c3nc(CN4CCOCC4)nc4scc(-c5ccccc5)c34)CC2)cc1 | inconclusive [inhibitor, single point] | 
33 | COC(=O)c1ccc(C(/C=C/[C@@H](C)C(=O)NCCN2CCCC2)NC(=O)OCc2ccccc2)cc1 (stereo not given in full) |  | inactive: 0.472%
34 | Cc1ccc(-n2ncc3c2CC(C)(C)CC3NC(=O)CCc2cccnc2)cc1 (stereo not given) | inconclusive [inhibitor, partial curve] | 
35 | Cc1ccc(C)c(N2CCN(C(=O)CN(C)S(=O)(=O)c3ccc4c(c3)CCC(=O)N4)CC2)c1 | inconclusive [inhibitor, single point] | 
36 | Cc1ccc(-c2nc(Nc3ccc(O)cc3)c3ccccc3n2)cc1 | inconclusive [inhibitor, partial curve] | 
37 | NC12CCc3c(no[n+]3[O-])C1(O)CC(c1ccccc1)=[N+]2[O-] (stereo not given) |  | inactive: 18.6%
38 | Cc1ccc(NC(=O)CN(c2cc(C)cc(C)c2)S(=O)(=O)c2c(C)noc2C)nc1 | inconclusive [activator, single point] | 
39 | CCC(O)CNc1nc(SC)nc2sc3c(c12)CCN(C)C3 (stereo not given) | inconclusive [activator, single point] | 
40 | O=C(OC1Cn2c(=O)ccc(=O)n2C1)c1ccccc1 | inconclusive [activator, partial curve, poor fit] | 
